According to publication PMC7432041:

Molecular target: T1, Cy3-NeutrAvidin, P02701
T1 chain: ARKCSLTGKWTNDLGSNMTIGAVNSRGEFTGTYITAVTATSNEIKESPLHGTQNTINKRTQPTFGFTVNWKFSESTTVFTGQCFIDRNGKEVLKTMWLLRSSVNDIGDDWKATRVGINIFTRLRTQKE
Experiment: SEC-MALS; SEC-LS (static and dynamic light scattering, refractive index, absorbance at 280 and 550 nm); Shodex KW 802.5 column at 4 °C, 25 mM Tris pH 7.5, 150 mM NaCl, 4 mM CaCl2, 0.5 mL/min; 50 µL injected
Conditions: remark: other sources report otherwise

stoichiometry N: 8
B1: Cy3-NeutrAvidin, P02701 25-152 (natural protein)
chain: ARKCSLTGKWTNDLGSNMTIGAVNSRGEFTGTYITAVTATSNEIKESPLHGTQNTINKRTQPTFGFTVNWKFSESTTVFTGQCFIDRNGKEVLKTMWLLRSSVNDIGDDWKATRVGINIFTRLRTQKE
modifications: here or on the partner: Cy3 (Cy3-NHS ester, degree of labelling 0.5); Cy3 (Cy3-NHS ester, degree of labelling 0.5)
